Screen size: about 52,000 compounds; about 1,700 (3.3%) were called active. No stated cut-off is given here; in the data, active means survival mostly below about 52% (no sharp cut-off); inactive means mostly above about 56%. Some of the results follow.
tested on: Wild type; assay: growth inhibition of S. aureus wild type versus tarO mutant, primary screen, teichoic acid synthesis inhibitors, RN4220, OD600 (AID 463173); conditions: S. aureus RN4220 wild type/DeltatarO growth, OD600, 18 h, stronger effect = lower value, screened at 18.75 µg/mL (by protocol)

Row | Structure (SMILES) | survival
1 | Cc1ccccc1Nc1ncccc1C(=O)N1CCOCC1 | inactive: 110%
2 | Cc1cc(C)c(NS(=O)(=O)c2ccc3c(c2)NC(=O)CCS3)c(C)c1 | inactive: 60%
3 | O=C(COc1ccc(Cl)cc1)N(Cc1ccco1)c1ccccn1 | inactive: 80%
4 | C#CCN1C(=O)C(O)(CC(=O)c2ccc(OC)c(OC)c2)c2cc(Br)ccc21 (stereo not given) | inactive: 111%
5 | Cc1ccc(S(=O)(=O)N(CC(O)Cn2c3ccccc3c3ccccc32)c2cccc(C(=O)N(C)C)c2)cc1 (stereo not given) | inactive: 72%
6 | COc1ccc(C2=NN(S(C)(=O)=O)C(c3cn(-c4ccccc4)nc3-c3cccs3)C2)cc1 (stereo not given) | inactive: 159%
7 | Cc1ccc(CN2C(=O)c3ccccc3Sc3ccc(C(=O)NCc4ccco4)cc32)cc1 | inactive: 55%
8 | CC1(C)CC(=O)c2cc(C(=O)Nc3ccc(Br)cc3)c(=O)[nH]c2C1 | inactive: 77%
9 | CCN(C(=O)C1CCC(CNS(=O)(=O)c2cccc3nsnc23)CC1)c1ccccc1 (stereo not given) | inactive: 76%
10 | COc1ccc(NC(=O)C2=C(C)Nc3ncnn3C2c2ccc(C)o2)cc1 (stereo not given) | inactive: 70%
11 | CCN(C(=O)C1CCC(CNS(=O)(=O)c2cccc3nsnc23)CC1)c1cccc(C)c1 (stereo not given) | inactive: 86%
12 | Cc1oc2ncnc(N3CCOCC3)c2c1C(=O)N1CCN(c2cccc(C(F)(F)F)c2)CC1 | active: -6%
13 | CCCn1c(=N)c(C(=O)NCc2cccnc2)cc2c(=O)n3cccc(C)c3nc21 | inactive: 77%
14 | CS(=O)(=O)N1CCC(NC(=O)Cc2ccccc2)CC1 | inactive: 117%
15 | COc1cccc(-c2ccnc3c(-c4ccc(F)cc4)c(C)nn23)c1 | inactive: 99%
16 | Cc1ccc(Oc2nc3c(c(=O)n(Cc4ccccc4)c(=O)n3C)n2C)cc1C | inactive: 25%
17 | O=C(CCCc1ccccc1)Nc1ncn[nH]1 | inactive: 98%
18 | O=C(Cc1ccc(NC(=O)N2CCSc3ncccc32)cc1)NCc1ccccc1 | inactive: 72%
19 | Cc1cc(C)cc(NC(=O)Cn2c(=O)n(C(C)C)c(=O)c3oc4ccccc4c32)c1 | inactive: 85%
20 | Cc1ccc(-c2nc3ccccn3c2Nc2ccc3c(c2)OCCO3)s1 | inactive: 71%
21 | CCOc1ccc(C2N3CC4(C(C)C)CN2CC(C(C)C)(C3)C4=O)cc1OC (stereo not given) | inactive: 88%
22 | CCOc1ccccc1NC(=O)N(C)CCc1c(C)nn(CC)c1C | inactive: 129%
23 | COc1ccc(/C=C/C(=O)N2CCC(c3nc4ccccc4o3)CC2)cc1OC | inactive: 78%

Row | Structure (SMILES) | survival
24 | COc1ccc(OCC(=O)N2CCN(C(=O)c3cc(OC)c(OC)c(OC)c3)CC2)cc1 | inactive: 96%
25 | Cc1ccc(COc2ccc3oc(-c4ccccc4)c(C(=O)O)c3c2)cc1 | inactive: 54%
26 | Cc1ccc(NC(=O)c2ccc(=O)n(CC(=O)Nc3c(C)cc(C)cc3C)n2)cc1 | inactive: 102%
27 | CCOc1ccc(C2C=C(c3cccc(OC)c3)Nc3nnnn32)cc1 (stereo not given) | inactive: 59%
28 | COc1ccc(N=Cc2ccc(Br)s2)cc1 | inactive: 110%
29 | COc1ccc(C(=O)N2CC(=O)Nc3ccc(C)cc3C2c2ccccc2)cc1OC (stereo not given) | inactive: 81%
30 | COc1ccc(-n2nc(C(=O)Nc3ccc(Br)cc3C)c3c4ccccc4n(C)c3c2=O)cc1 | inactive: 73%
31 | COc1cccc(C(=O)Nc2ccc(-n3nncc3-c3ccc(Br)cc3)cc2)c1OC | inactive: 143%
32 | Cc1cc(C)n2c(Nc3ccccc3C)c(-c3cccs3)nc2n1 | inactive: 92%
33 | CC(C)(C)c1ccc(C(=O)NNc2ncnc3c2cnn3-c2ccccc2)cc1 | inactive: 82%
34 | CCN(C(=O)Cn1c(SCC(=O)Nc2ccc(OC)cc2)nc2ccccc21)c1cccc(C)c1 | inactive: 134%
35 | O=C(COc1ccccc1)NCC(c1cccs1)S(=O)(=O)c1ccc(Cl)cc1 (stereo not given) | inactive: 71%
36 | Cc1c(C2=CCN(S(=O)(=O)c3ccc(Br)cc3)CC2)c2ccccc2n1CC(=O)N1CCCC1 | inactive: 82%
37 | Cc1ccc(CNC(=O)CSc2c3c(nc4ccc(Cl)cc24)CCCC3)cc1 | inactive: 80%
38 | Cc1cnc(NC(=O)C(C)N2CCN(C)CC2)s1 (stereo not given) | inactive: 101%
39 | Cc1cccc(Nc2nc(C)nc(N)c2S(=O)(=O)c2ccccc2)c1 | inactive: 82%
40 | Cc1ccc2nc(-c3ccc(C)c(NC(=O)Cc4ccccc4)c3)oc2c1 | inactive: 77%
41 | Cc1ccccc1CN1CCc2nc(N3CCN(c4ccccn4)CC3)ncc2C1 | inactive: 71%
42 | CCOc1ccc(NC(=O)CN(Cc2ccccc2)S(=O)(=O)c2ccc(Cl)cc2)cc1 | inactive: 92%
43 | COc1ccc2nc3oc(C(=O)Nc4cccc(C(F)(F)F)c4)cc3cc2c1 | inactive: 66%
44 | Cc1cc(C)cc(NS(=O)(=O)c2ccc3c(c2)OCC(C(=O)N2CCCC2)O3)c1 (stereo not given) | inactive: 78%
45 | CCNC(=O)c1c(NC(=O)COc2ccc(F)cc2)sc2c1CCCC2 | inactive: 81%
46 | O=C(Nc1ccc(Br)cc1)N1CCC(CN2CCCC2)CC1 | inactive: 119%

Row | Structure (SMILES) | survival
47 | CCCC12CN3CC(C)(CN(C1)C3c1ccccc1Cl)C2=O (stereo not given) | inactive: 126%
48 | CCc1c(C)sc2c1CCN(C(=O)Nc1ccccc1C(=O)OC)C2c1ccc(F)cc1 (stereo not given) | inactive: 79%
49 | Cc1ccccc1NC(=O)CS(=O)(=O)c1cccc2nsnc12 | inactive: 74%
50 | Cc1c(Cl)cccc1NC(=O)c1ccc(NC(=O)N2CCSc3ncccc32)cc1 | inactive: 81%
51 | COc1ccc(NC(=O)CSc2c3c(nc4ccc(Cl)cc24)CCCC3)cc1Cl | inactive: 75%
52 | COc1ccc(N2CCN(CCCNC(=O)c3ccc4nc(CCc5ccccc5)oc4c3)CC2)cc1 | inactive: 113%
53 | O=C(NC1CCCC1)C(c1ccccc1)N(Cc1cccs1)C(=O)Cn1nnc2ccccc21 (stereo not given) | inactive: 118%
54 | CCOc1ccc(C2C(C(=O)Nc3ccc(OC)cc3)=C(C)Nc3nc(SCc4ccc(Cl)cc4)nn32)cc1 (stereo not given) | inactive: 121%
55 | O=C(c1ccc2c(c1)N(Cc1ccc(F)cc1)CCS2)N1CCN(c2ccccc2)CC1 | inactive: 84%
56 | CCCc1ccc(OCC(=O)Nc2scc(-c3cccs3)c2C(=O)OC)cc1 | inactive: 83%
57 | COc1ccc2c(c1)CC(C(=O)NCCN1CCN(c3cccc(Cl)c3)CC1)CO2 (stereo not given) | inactive: 75%
58 | Cc1ccc(CNC(=O)c2sc3nc4n(c(=O)c3c2C)CCCC4)cc1 | inactive: 82%
59 | Cc1nc(Oc2ccccc2C)c2oc3ccccc3c2n1 | inactive: 78%
60 | CN(C(=O)Cn1nc(C(F)(F)F)c2c1CCC2)C1CCCCC1 | inactive: 106%
61 | Cc1ccc(C)c(NC(=O)CCc2nc(-c3ccc(C(C)(C)C)cc3)no2)c1 | inactive: 109%
62 | CC(C)=NNS(=O)(=O)c1ccc(N2CCCC2=O)cc1 | inactive: 102%
63 | COc1cc(CNC(=O)CSCc2nc3cccnc3n2C2CCCCC2)cc(OC)c1OC | inactive: 135%
64 | COc1cccc(NC(=O)CN(C)S(=O)(=O)c2cccs2)c1 | inactive: 89%
65 | CCOc1cc(C#N)c(NC(=O)c2cccc(S(=O)(=O)N3CCOCC3)c2)cc1OCC | inactive: 131%
66 | O=C(CCNS(=O)(=O)c1ccc2c(c1)CCCC(=O)N2)NCc1ccccc1Cl | inactive: 72%
67 | CCC(=O)N1CCc2cc(CNC(=O)Nc3ccccc3Cl)ccc21 | inactive: 68%
68 | CC1CCN(C(=O)CSc2nc(-c3ccc(C(C)C)cc3)no2)CC1 | inactive: 71%
69 | CC(C(=O)NCc1ccccc1)N1Cc2ccccc2C1=O (stereo not given) | inactive: 76%

Row | Structure (SMILES) | survival
70 | CCC1CCCCN1CCCNC(=O)c1ccc2c(c1)N(Cc1ccccc1F)C(=O)c1ccccc1S2(=O)=O (stereo not given) | inactive: 125%
71 | CCCS(=O)(=O)N1CC(=O)N(c2ccccc2F)C(C)(C(=O)NC2CCCCCC2)C1 (stereo not given) | inactive: 72%
72 | Cc1ccc(C(=O)Nc2ccc3c(c2)N(C)C(=O)c2ccccc2S3)cc1 | inactive: 99%
73 | COc1ccc(CCNC(=O)c2cc(C)nc3c2c(C)nn3-c2ccccc2)cc1OC | inactive: 76%
74 | CCc1ccc(NC(=O)c2cc(S(=O)(=O)N3CCCC3)ccc2F)cc1 | inactive: 69%
75 | CCCCc1nn2c(=O)cc(COC(=O)c3ccc(NC(=O)c4cccs4)cc3)nc2s1 | inactive: 84%
76 | Fc1ccc(Nc2nc3nonc3nc2Nc2cccc(C(F)(F)F)c2)cc1 | active: -1%
77 | CCN1CCSc2ccc(C(=O)NCc3cccc(F)c3)cc21 | inactive: 87%
78 | O=C(Cn1c(=O)n(-c2ccc(Cl)cc2)c(=O)c2c3c(sc21)CCC3)c1ccc(F)cc1 | inactive: 74%
79 | Cn1c(CNC(=O)CSc2n[nH]c(-c3ccccc3)n2)nc2ccccc21 | inactive: 67%
80 | CC(C)(C)C1CCc2c(sc(NC(=O)Cn3nnc(-c4cccc(C(F)(F)F)c4)n3)c2C#N)C1 (stereo not given) | inactive: 96%
81 | CCCCCOC(=O)CSc1nc2sc3c(c2c(=O)n1Cc1ccccc1)CC(C)(C)OC3 | inactive: 62%
82 | CC1(C)OC2C(CS(C)(=O)=O)OC(n3ncc(=O)[nH]c3=O)C2O1 (stereo not given) | inactive: 110%
83 | Cc1csc2nc(COc3ccc(NC(=O)COc4ccccc4F)cc3)cc(=O)n12 | inactive: 86%
84 | COc1ccccc1Cn1c(CNS(=O)(=O)c2ccc3c(c2)CCCC3)nc2cccnc21 | inactive: 70%
85 | COc1ccccc1OCCSc1ncnc2nc[nH]c12 | inactive: 105%
86 | COc1ccccc1N1CCN(C(=O)CSc2nc3ccccc3nc2Cc2ccc(F)cc2)CC1 | inactive: 80%
87 | O=C(CSc1nc(-c2ccccc2)[nH]c1-c1ccccc1)Nc1ccc2c(c1)OCO2 | inactive: 100%
88 | Cc1cccc(Nc2nc(-c3ccccc3)c3cc(C)ccc3n2)c1 | active: 11%
89 | Cc1nc2sccn2c(=O)c1S(=O)(=O)Nc1ccc(N2CCN(S(C)(=O)=O)CC2)cc1 | inactive: 129%
90 | CCC(=O)N1c2ccccc2CC1C(=O)NCCN1CCN(c2cccc(C)c2C)CC1 (stereo not given) | inactive: 73%

Reference: PubChem BioAssay AID463173 (ICCB-Longwood Screening Facility, Harvard Medical School, 2010)
